Results: the supplement of paper PMC10338343
± gives the standard deviation. Whole data set: some 6,600 sequences, median “pre-steady-state target cleavage rate” near 0.07, cut for the highest 2% near 0.72. Only a part is listed here, and it is no random draw.

System: MIWI (PIWIL1) piRISC loaded with Kctd7 piRNA (30 nt)
Experiment: pre-steady-state target cleavage rate (min^-1); MIWI and MILI are mouse PIWI proteins and EfPiwi is from a freshwater sponge; tags in brackets are library labels; higher = faster piRNA-guided slicing of the target
Conditions: guide: Kctd7 piRNA 5'p-UGUUAAUCUCUCAGAGAAGGUGACAGUGAU; auxiliary factor: 500 nM mouse GTSF1
Procedure, shortened: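 Sequencing of uncleaved targets, normalised to depth and to weakly complementary targets, was the readout of this Cleave-'n-Seq assay. A transcribed, DNA-blocked target RNA library (0.1 nM) was mixed with 1 nM active affinity-purified piRISC carrying one synthetic guide, with or without 500 nM GTSF1 partner protein, in HEPES–potassium acetate buffer at 33 °C for 0–8 or 0–960 min. Three trials were pooled, k3 was capped at 0.0001 min^-1, and a burst-and-steady-state fit gave the pre-steady-state cleavage rate.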

Sequence | pre-steady-state target cleavage rate
UAGUCUGUCACCUUCUCUGAGACAUUAAGA | 0.00787 ± 0.0027
AUCACUCACACCUUCUCUGAGAGAUUAAGA | 0.0991 ± 0.021
UAGUGACUCACCUUCUCUGAGAGAUAUAACA | 0.142 ± 0.015
UAGACUGUCACCUUCUGUGAGAGAAUAACA | 0.176 ± 0.025
UAGUCUGUCACCUUCUCAGAGAGAUUAUCA | 0.142 ± 0.022
UAGUGACAGUCCUUCUCUGAGAAGAUUAACA | 0.0051 ± 0.002
AUCACUGUGUCCUUCUCUGAGAGAUUAUGA | 0.133 ± 0.034
UAGUGACACACCUUCUCUGAGAGAUUUUCA | 0.0725 ± 0.017
AUCACUGUCACCUUCUCUGAGAGUUUUUGA | 0.419 ± 0.093
UAGUGACACACCUACUCUGAGAGAUUAAGA | 0.0629 ± 0.015
UAGUGUGUCACCUUCUCUCAGUGAUUAACA | 0.00771 ± 0.004
UUCACACACACCUUCUCUGAGAGAUUAAGA | 0.13 ± 0.024
UAGUGACUCACCUACUCUCAGAGAUUAACA | 0.008 ± 0.0025
AUCACUGUCUGCUUCUCUGAGAGAUUAAGA | 0.126 ± 0.021
UACACUGUCAGCAUCUCUGAGAGAUUAACA | 0.462 ± 0.026
UAGUCAGUCACCUUCUCUGAGAGAUUUACA | 0.308 ± 0.03
UAGUGUGUCACCUUACUCUGAGAGAUUAACA | 0.23 ± 0.02
UAGUGAGUCACCUUCUCUGUGAGAUAUUGA | 0.00571 ± 0.0037
UAGUGAGUCACCUUCUCUGAGAGAUAUACA | 0.207 ± 0.029
UAGUGUGUGACCUUCUCUGAGAGAUAAACA | 0.331 ± 0.037
UAGUGUGUCAGCUUCUGUGAGAGAUUAACA | 0.442 ± 0.029
UUCACUGUCACCUUCUCUGAAAGAUUAACA | 0.477 ± 0.02
UAGUGUGUCACCUUCUCUGAGAGAAAUAGA | 0.00826 ± 0.0048
AUCACUGUCACCUUCUCUGACGAGAUUAACA | 0.0322 ± 0.0096

Sequence | pre-steady-state target cleavage rate
UAGUGAGUCACCUUCUCUGAGACAUAAACA | 0.16 ± 0.046
UAGUGACUCACCUCCUCUGAGAGAUUAACA | 0.504 ± 0.034
UUCACUGUCACCUUCUCUGUGAGAUUAACA | 0.26 ± 0.015
UACACUGUCACCUUCUCAGAGAGAUAAACA | 0.0806 ± 0.01
UUCACUGUCACCUUCUCACAGAGAUUUUGA | 0.00887 ± 0.0043
UAGACUGUCACCUUCUGUGAGAGUUUAACA | 0.114 ± 0.018
UAGUGACUCUCCUUCUCUGAGAGAUUUACA | 0.0556 ± 0.009
UAGUGUGUGACCUUCUCUGAGAGAUUAUCA | 0.163 ± 0.022
UAGUGACACACCUUCACUGAGAGUUUAACA | 0.157 ± 0.039
AUCACUCUCACCUUCUCUGACAGAUUAACA | 0.561 ± 0.025
UAGUGACAGUGGUUCUCUGAGGGAUUAACA | < 0.0001
UAGUGUGUCACCUUCUUCUGAGAGAUUAACA | 0.0196 ± 0.0064
UACACUGUCACCUUCUCUGACAGAUUUUGA | 0.00808 ± 0.005
UUCACUGUCACCUUCUCUGUCUGAUUAAGA | 0.0116 ± 0.0055
UAGUCUCUCACCUUCUCUGUGAGAUUAACA | 0.2 ± 0.015
UAGUCUGUCACCUUCUCUGAGAGAUUACCA | 0.181 ± 0.026
UUCACUGUCACCUUCUCUGUCAGAUUAUGA | 0.0162 ± 0.0084
UUCACUGUCACCUUCUCUGAGAGAAUAUGA | 0.0687 ± 0.025
UAGACUCUCACCUUCUCUGAGAGAUUAUCA | 0.197 ± 0.027
UUCUCUGUCACCUUGUCUGAGAGAUUAACA | 0.243 ± 0.031
UAGUCUGUCACCUUCUCUGAGAGAGUUAACA | 0.491 ± 0.065
UAGUGACACACCUUCUCUGCGAGAUUAACA | 0.311 ± 0.035
UAGUGACAGACCUUCUCAGAGAGAUUAUCA | 0.00707 ± 0.0056
UUCACUGUGACGUUCUCUGAGAGAUUAACA | 0.59 ± 0.026

Sequence | pre-steady-state target cleavage rate
UUCACUGUCACCUUCUCUGAGAGAUUACACA | 0.374 ± 0.054
UAGUGAGUCACGAUCUCUGAGAGAUUAAGA | 0.0535 ± 0.012
UAGUGACUCACCUUCUCUGAGAGAUUAACCA | 0.341 ± 0.028
UAGUGACACACGUUCUCUGUGAGAUUAACA | 0.048 ± 0.0071
UAGUGACAGUCCUUCACUGAGACAUUAACA | 0.00862 ± 0.0032
UAGUCUGUCAGCAUCUCUGAGAGAUUAACA | 0.342 ± 0.026
AUCACUGUCACCUUCUCUGACACAUUAACA | 0.0505 ± 0.0076
UACACUGUGCACCUUCUCUGAGAGAUUAACA | 0.584 ± 0.041
UAGUCUCGUCACCUUCUCUGAGAGAUUAACA | 0.571 ± 0.025
UAGUCUGUCACCAUCUCUGAGACAUUAACA | 0.0849 ± 0.011
AUCACUAUCACCUUCUCUGAGAGAUUAACA | 0.655 ± 0.037
UAGUGACAGUGGAACUCUGAGAGUUAACA | < 0.0001
UAGUGACAGUGCUUCUCUGUGACAUUAACA | < 0.0001
UAGUGAGUCACCUUCUCUGAGAGAAAUACA | 0.0759 ± 0.018
UUCACUGACACCUUCUCUGAGAGAUUAACA | 0.591 ± 0.033
UUCACUGUCACCAUCUCUGACAGAUUAACA | 0.216 ± 0.021
UAGUGAGUCACCUUCUCUGAGAGAAUAUCA | 0.124 ± 0.041
AUCACUGUGACCUUCUCUGAGAGAUUAUGA | 0.141 ± 0.028
AUCACUGUCACCUUCACUGAGAGAUUAACA | 0.589 ± 0.041
UAGACUGUCACCUUCACUGAGAGAUUAUCA | 0.345 ± 0.058
UAGUGACAGUGGAAGAGACAGAGACUUAACA | < 0.0001
UAGUGUGUCACCUUCUCUGACACAUUAACA | 0.00703 ± 0.0044
UUCACUGUCACCUUCUCUGACACAUUAACA | 0.0791 ± 0.0098
UAGUGACACACUUCUCUGAGAGAUUAACA | 0.213 ± 0.02
